PubChem BioAssay AID504339 (National Center for Advancing Translational Sciences (NCATS), 2011)
Several values for one entry are separate records, joined by “and”; a condition that tells them apart may be missing. Equal values may be shown once. Screen size: about 390,000 compounds; about 17,000 (4.4%) were called active. Inconclusive means that the source gave no clear call. Such entries were picked first, then a sample of the others. Calls follow the shape of the dose curve; as a rule, active = well fitted inhibition curve with a large enough effect; inconclusive = small, poorly fitted or top-dose-only effect; inactive = no such curve, though single readings can be large or run the other way. Potencies beside an inconclusive call are fits to weak or partial responses and may not hold up.

biological target: Lysine-specific demethylase 4A (Homo sapiens) (UniProt O75164); test: qHTS Assay for Inhibitors of JMJD2A-Tudor Domain; settings: AlphaScreen JMJD2A-Tudor / H3K4me3 peptide binding; activity change, negative = inhibition: at 114 µM (top of the series); also: nearly all actives have a fitted effect of over 50% in size
Sequence of UniProt O75164 (O75164 whole entry, looked up, the tested form may be a part): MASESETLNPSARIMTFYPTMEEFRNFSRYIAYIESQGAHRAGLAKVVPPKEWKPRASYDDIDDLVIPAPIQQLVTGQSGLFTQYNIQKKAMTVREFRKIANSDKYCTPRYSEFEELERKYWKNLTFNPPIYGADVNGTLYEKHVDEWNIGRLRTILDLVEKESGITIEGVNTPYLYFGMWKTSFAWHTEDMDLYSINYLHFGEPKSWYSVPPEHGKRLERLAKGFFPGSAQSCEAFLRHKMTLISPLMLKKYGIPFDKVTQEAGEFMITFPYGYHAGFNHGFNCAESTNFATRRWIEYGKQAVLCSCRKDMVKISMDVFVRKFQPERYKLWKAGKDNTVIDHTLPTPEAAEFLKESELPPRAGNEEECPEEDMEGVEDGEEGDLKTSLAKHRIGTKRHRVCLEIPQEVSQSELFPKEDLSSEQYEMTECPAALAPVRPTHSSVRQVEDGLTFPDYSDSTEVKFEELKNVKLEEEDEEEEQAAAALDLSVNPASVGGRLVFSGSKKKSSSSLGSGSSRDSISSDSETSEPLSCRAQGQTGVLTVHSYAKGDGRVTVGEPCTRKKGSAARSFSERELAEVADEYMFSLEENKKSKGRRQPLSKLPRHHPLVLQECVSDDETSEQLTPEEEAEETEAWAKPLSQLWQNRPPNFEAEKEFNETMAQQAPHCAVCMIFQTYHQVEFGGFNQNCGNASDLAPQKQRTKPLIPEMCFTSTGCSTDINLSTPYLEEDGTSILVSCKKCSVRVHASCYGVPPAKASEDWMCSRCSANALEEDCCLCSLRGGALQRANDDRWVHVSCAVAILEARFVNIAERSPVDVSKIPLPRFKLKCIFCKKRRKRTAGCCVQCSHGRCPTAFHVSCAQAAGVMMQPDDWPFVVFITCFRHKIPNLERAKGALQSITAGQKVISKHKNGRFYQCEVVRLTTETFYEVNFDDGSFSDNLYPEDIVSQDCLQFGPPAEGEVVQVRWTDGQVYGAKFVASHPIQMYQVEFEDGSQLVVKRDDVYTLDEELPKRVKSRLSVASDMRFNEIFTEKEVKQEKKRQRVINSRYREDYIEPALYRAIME
% is scaled to controls: 0 for no effect and ±100 for the full control effect; potency is read from the fitted curve at half-maximal effect; tags tell the direction and shape of the fitted curve.

| Compound | Potency | activity change, negative = inhibition |
| --- | --- | --- |
| COC(=O)c1cc(NC(=O)[C@H](CCS(C)(=O)=O)N2Cc3ccccc3C2=O)cc(C(=O)OC)c1 | inactive | – |
| Cc1ccc(-n2ccnc2SCC(=O)c2c(N)n(C3CC3)c(=O)[nH]c2=O)cc1C | inactive | – |
| Cc1cc(C)n(C(=O)COc2ccccc2C)n1 | inactive | – |
| CCN(CC)c1ccc(C=C2SC(=S)NC2=O)cc1 | inconclusive: 14.1 µM [inhibitor, full curve] | – |
| CC1CCN(CCCNC(=O)c2cn(C)c3ccc(S(=O)(=O)N(C)C4CCCCC4)cc3c2=O)CC1 | inconclusive: 3.55 µM [inhibitor, single point] | – |
| Cc1ccc(NC2CCCN(C(=O)CCC3(C)CC3)C2)cc1C (centres undefined) | inconclusive: 63.1 µM [inhibitor, partial curve] | – |
| Cc1ccc(S(=O)(=O)N2CCOCC2)cc1C(=O)N1CC(C)CC(C)C1 (centres undefined) | inactive | – |
| CCS(=O)(=O)N1CCN(S(=O)(=O)c2ccc(F)cc2)CC1 | inconclusive: 100 µM [inhibitor, single point] | – |
| Cc1[nH]n(-c2ccccc2)c(=O)c1N=Nc1nccs1 | inconclusive: 56.2 µM [inhibitor, partial curve] | – |
| Cc1ccc2c(c1)N(C(=O)CCC(=O)NCc1cccs1)CCO2 | inactive | – |
| COc1cc2c(cc1OC)C(c1cccs1)N(C(=O)c1ccc(S(=O)(=O)N(C)C)cc1)CC2 (centres undefined) | inconclusive: 35.5 µM [inhibitor, partial curve] | – |
| CC(=O)C1=C(O)C(=O)N(CCCN2CCOCC2)C1c1ccccc1[N+](=O)[O-] (centres undefined) | inactive | – |
| O=C(CCSCc1cccc(F)c1)NCc1ccc(F)cc1 | inconclusive: 14.1 µM [inhibitor, full curve] | – |
| O=C(Nc1nnc(S(=O)(=O)N2CCCC2)s1)c1ccccc1Br | inactive and inconclusive: 39.8 µM [inhibitor, partial curve] | – |
| COc1ccc(-c2nc(-n3c(C)c(C(C)=O)c(C(C)=O)c3C)sc2C)cc1 | inconclusive: 56.2 µM [inhibitor, partial curve] | – |
| Cc1ccc(N2CCN(C(=O)c3ccccc3NC(=O)/C=C\C(=O)O)CC2)cc1 | inconclusive: 56.2 µM [inhibitor, partial curve] | – |
| CCOC(=O)c1ccc(NC(=O)CSc2nnc(CNC(=O)c3ccc(OC)cc3)n2CC)cc1 | inactive | – |
| COc1ccc(NC(=O)CC2C(=O)N(c3ccc(C)cc3)C(=O)N2Cc2ccc3c(c2)OCO3)cc1 (centres undefined) | inconclusive: 12.6 µM [inhibitor, partial curve, poor fit] | – |
| CCCCn1cc2c(c1-c1cccc(C)c1)c(=O)n(C)c(=O)n2C | inactive | – |
| Cc1ccc2c(CC(=O)N3CCN(c4cccc(Cl)c4)CC3)coc2c1C | inactive | – |
| O=c1[nH]c2cc3c(cc2cc1CN(Cc1cccnc1)Cc1nnnn1Cc1ccco1)OCCO3 | inconclusive: 39.8 µM [inhibitor, full curve, poor fit] | – |
| Cc1ccc(O)c(NC(=O)COc2cc(C)ccc2C)c1 | inconclusive: 79.4 µM [inhibitor, partial curve] | – |
| O=C1NC(=S)S/C1=C\c1coc2ccc(O)cc2c1=O | – | inactive: -1.47% [at 11.4 µM] |

| Compound | Potency | activity change, negative = inhibition |
| --- | --- | --- |
| CCCCN(CC)CCNC(=O)c1cc2c(=O)[nH]c3ccc(C)cc3c2s1 | inconclusive: 89.1 µM [inhibitor, single point] | – |
| CSc1cccc(Nc2ccc(S(=O)(=O)N3CCOCC3)cc2[N+](=O)[O-])c1 | inconclusive: 8.91 µM [inhibitor, full curve] | – |
| Cc1cc2cc(CNC(=O)Nc3ccccc3)ccc2[nH]1 | inconclusive: 63.1 µM [inhibitor, partial curve] | – |
| COC(=O)C1CCN(Cc2ccc(OCCCN3CCN(c4ccc([N+](=O)[O-])cc4)CC3)cc2)CC1 | – | inconclusive: -45.3% [inhibitor] |
| CCOC(=O)c1c(NC(=O)CSc2cn(CCNC(=O)c3ccc(OC)c(OC)c3)c3ccccc23)sc2c1CCC2 | inactive | – |
| O=C(CSc1nc(Nc2ccccc2)nc(N2CCOCC2)n1)Nc1cc(Cl)ccc1O | inconclusive: 22.4 µM [inhibitor, full curve] | – |
| CCOC(=O)Nc1ccc2c(c1)C(=NNC(N)=S)c1ccccc1-2 | inconclusive: 4.47 µM [inhibitor, full curve] | – |
| CCOc1ccccc1CNC(=O)C1CCN(C(=O)N2CCOc3ccc(Cl)cc32)CC1 | inconclusive: 50.1 µM [inhibitor, partial curve] | – |
| C/C(=N/NC(=O)c1ccccn1)c1ccc(O)cc1 | inconclusive: 44.7 µM [inhibitor, partial curve] | – |
| O=C(CSc1nnc(Cc2ccc3c(c2)OCO3)n1C1CCCCC1)NC1CCCC1 | inactive | – |
| COc1ccc(NS(=O)(=O)c2cc(N)ccc2N2CCOCC2)cc1 | inactive | – |
| CNC[C@H](Cc1ccccc1)NC[C@@H](Cc1cccc2ccccc12)NCCc1ccc(C)cc1 | inconclusive: 14.1 µM [inhibitor, full curve] | – |
| CSc1nnc(CCNS(=O)(=O)c2ccc(Br)cc2)n1C | inactive | – |
| Cn1c(=O)c([N+](=O)[O-])c(N2CCN(Cc3ccc4c(c3)OCO4)CC2)c2ccccc21 | inconclusive: 35.5 µM [inhibitor, partial curve] | – |
| COc1ccc(CNc2nc3c(c(=O)n(Cc4ccc(F)cc4)c(=O)n3C)n2C)cc1 | inconclusive: 50.1 µM [inhibitor, partial curve] | – |
| O=[S+]([O-])(c1ccc2c(c1)OCCO2)N1CCN([S+](=O)([O-])c2c(F)cc(O)cc2F)CC1 | inactive | – |
| COc1ccc(-c2csc(NC(=O)c3cc(C)oc3C)n2)cc1OC | inconclusive: 44.7 µM [inhibitor, partial curve] | – |
| CC(NC(=O)c1cc2sccc2n1C)c1ccc2c(c1)OCCO2 (centres undefined) | inconclusive: 44.7 µM [inhibitor, partial curve] | – |
| O=C1SC(SCc2ccccc2)=N/C1=C\c1ccc(C(=O)O)cc1 | inconclusive: 39.8 µM [inhibitor, partial curve] | – |
| COc1cc(C(=O)N2CCc3c([nH]c4ccccc34)C2c2ccc(F)cc2)cc(OC)c1OC (centres undefined) | inconclusive: 39.8 µM [inhibitor, partial curve] | – |
| O=C(CN1CCN(c2ccc(O)cc2)CC1)Nc1ccccc1C(=O)NCCc1ccccc1 | inconclusive: 31.6 µM [inhibitor, partial curve] | – |
| COc1cccc(NC(=O)CN(C)C(=O)c2cc(-c3ccco3)nc3ccccc23)c1 | active: 17.8 µM | – |
| CCC(=O)N1CCc2cc(CNC(=O)Cc3ccc(OC)c(OC)c3)ccc21 | inactive | – |

| Compound | Potency | activity change, negative = inhibition |
| --- | --- | --- |
| C=CCOc1cccc(C2C(C(=O)c3ccco3)=C(O)C(=O)N2CCN2CCOCC2)c1 (centres undefined) | inconclusive: 89.1 µM [inhibitor, single point] | – |
| O=C(OCc1nc2scc(-c3ccccc3)c2c(=O)[nH]1)c1ccco1 | inactive | – |
| COc1cccc(/C=N/NC(=O)c2ccoc2C)c1O | – | inactive: -1.47% [at 11.4 µM] |
| O=C(NCc1ccc2c(c1)OCO2)C(=O)NCC1CCCO1 (centres undefined) | inactive | – |
| COc1cccc(-c2nnc(NC(=O)c3ccccc3Br)o2)c1 | inconclusive: 100 µM [inhibitor, single point] | – |
| COc1ccc(F)cc1C1=CC(=O)C[C@H](c2ccc3c(c2)OCO3)C1 | inactive | – |
| Cc1ccc(O)c(N=CC2=C(O)c3ccccc3C2=O)c1 | inconclusive: 56.2 µM [inhibitor, partial curve, poor fit] | – |
| COc1ccc(N2Cc3cccc(C(=O)Nc4ccc(C)cc4)c3C2=O)cc1 | inconclusive: 11.2 µM [inhibitor, full curve] | – |
| CC1(C)CC(=O)C2=C(C1)c1c(ccc3ccccc13)NC2c1ccco1 (centres undefined) | inconclusive: 56.2 µM [inhibitor, partial curve] | – |
| COC(=O)c1ccnc(/C=N/O)c1 | active: 35.5 µM | – |
| O=C(CCSc1nccn1Cc1ccccc1)N1CCOCC1 | inconclusive: 79.4 µM [inhibitor, single point] | – |
| CCN(CC)C(=O)C1CCN(Cc2cccc(OCc3ccccc3)c2)CC1 | active: 50.1 µM | – |
| C[n+]1ccccc1/C=C/c1c(F)cccc1F | inconclusive: 35.5 µM [inhibitor, partial curve] | – |
| c1coc(CNc2nc3nonc3nc2NCc2ccco2)c1 | inactive | – |
| S=C(NCCN1CCOCC1)C(=S)NCCN1CCOCC1 | inconclusive: 89.1 µM [inhibitor, partial curve, poor fit] | – |
| COc1ccc(OC)c(NC(=O)CN2CCC(C(=O)c3ccc(C)cc3)CC2)c1 | inconclusive: 31.6 µM [inhibitor, full curve, poor fit] | – |
| CC1=NOC(=O)/C1=C\c1ccc(-c2ccc(Cl)cc2Cl)o1 | inconclusive: 44.7 µM [inhibitor, full curve] | – |
| Cc1ccc(NC(=O)Cn2c(CCC(=O)O)ccc2-c2cccs2)cc1Cl | inactive and inconclusive: 50.1 µM [inhibitor, partial curve] | – |
| O=C(CN(Cc1ccccc1)S(=O)(=O)c1ccccc1)N/N=C/c1ccccc1[N+](=O)[O-] | inconclusive: 22.4 µM [inhibitor, full curve] | – |
| COC(=O)c1sc(-c2ccccc2)cc1NC(=O)c1ccc(OC)cc1 | inactive | – |
| O=[N+]([O-])c1ccc(/C=N/Nc2ccc3ccccc3c2)o1 | active: 7.08 µM | – |
| CCOC(=O)c1c(C)c(C(=O)Nc2cc(OC)ccc2OC)c(C)n1CC | inconclusive: 44.7 µM [inhibitor, partial curve] | – |
| CCOc1cc(C2C(C(=O)Nc3ccccc3)=C(C)Nc3ncnn32)cc(Br)c1O (centres undefined) | inconclusive: 79.4 µM [inhibitor, single point] | – |
